Measured values taken from publication PMC4336329 (PLoS ONE, 2015).
About 14,000 (4.5%) of roughly 310,000 compounds showed an effect of 50% or more. Effects have a minus sign here. Some of the results follow.

biological target: human ether-à-go-go-related gene (hERG) potassium channel (human, UniProt Q12809); test: primary screen, population patch clamp on CHO cells stably expressing hERG
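Further: peak tail current of the secondary pulse compared with the same well before compound.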

Chain of human ether-à-go-go-related gene (hERG) potassium channel (Q12809 whole entry, looked up): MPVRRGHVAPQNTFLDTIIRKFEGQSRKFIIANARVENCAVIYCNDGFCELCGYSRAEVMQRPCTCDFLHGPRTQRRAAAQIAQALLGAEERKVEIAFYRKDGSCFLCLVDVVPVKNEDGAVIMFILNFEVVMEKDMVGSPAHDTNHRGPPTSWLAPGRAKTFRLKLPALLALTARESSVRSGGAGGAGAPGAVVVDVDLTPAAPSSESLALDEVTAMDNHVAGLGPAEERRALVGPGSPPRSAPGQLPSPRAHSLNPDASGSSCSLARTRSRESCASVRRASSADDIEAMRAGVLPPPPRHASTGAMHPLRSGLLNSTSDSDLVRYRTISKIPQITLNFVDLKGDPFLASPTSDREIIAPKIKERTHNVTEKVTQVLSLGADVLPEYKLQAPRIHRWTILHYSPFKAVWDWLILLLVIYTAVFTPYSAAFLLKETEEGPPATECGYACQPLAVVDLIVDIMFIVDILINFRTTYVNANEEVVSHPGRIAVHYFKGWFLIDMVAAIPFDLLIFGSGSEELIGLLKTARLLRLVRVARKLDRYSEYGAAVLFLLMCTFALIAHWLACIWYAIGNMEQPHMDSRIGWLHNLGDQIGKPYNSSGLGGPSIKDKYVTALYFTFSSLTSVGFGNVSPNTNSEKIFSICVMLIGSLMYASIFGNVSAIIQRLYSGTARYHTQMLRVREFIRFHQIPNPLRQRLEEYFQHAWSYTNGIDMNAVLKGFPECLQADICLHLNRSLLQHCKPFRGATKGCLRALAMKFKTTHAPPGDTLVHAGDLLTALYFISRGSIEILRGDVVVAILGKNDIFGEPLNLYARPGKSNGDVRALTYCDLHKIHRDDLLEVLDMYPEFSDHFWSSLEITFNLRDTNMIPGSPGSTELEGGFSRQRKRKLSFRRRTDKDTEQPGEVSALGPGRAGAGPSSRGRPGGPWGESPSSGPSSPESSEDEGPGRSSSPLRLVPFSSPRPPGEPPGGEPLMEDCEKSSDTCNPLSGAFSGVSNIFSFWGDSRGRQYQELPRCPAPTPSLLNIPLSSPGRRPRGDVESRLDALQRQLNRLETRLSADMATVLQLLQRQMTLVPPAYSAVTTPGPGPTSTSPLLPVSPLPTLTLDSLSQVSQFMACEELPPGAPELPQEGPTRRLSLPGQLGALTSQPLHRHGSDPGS

SMILES | hERG current change (%, negative = inhibition) at 10uM [%]
COc1ccc(/C=C2\N=C3CCCCCN3C2=O)cc1 | -14.2
CN(C)C(=O)CN1c2cccc3cccc(c23)S1(=O)=O | 14.8
Cc1ccc(OCC(=O)N/N=C/c2ccco2)cc1 | -29.5
Cc1ccccc1NC(=O)NCC1CCN(c2ccc(S(=O)(=O)N3CCOCC3)cc2)CC1 | -1.19
CN1CCC(OC(=O)COc2ccccc2)CC1.Cl | 15.1
COc1ccc(-c2cc3nc(C)c(CCC(=O)N4CCN(c5ccccn5)CC4)c(C)n3n2)c(OC)c1 | -36
Fc1ccc(-n2c(-c3ccco3)n[nH]c2=S)cc1 | 28
CCN(c1ccccc1)S(=O)(=O)c1ccc(Cl)c(C(=O)NCc2ccco2)c1 | -46.3
Cc1[nH]nc(SCC(=O)Nc2cccc(O)c2)c1[N+](=O)[O-] | 27.9
O=C(NC(=O)c1cccc(Cl)c1)OC[C@@H]1CCCN2CCCCC12 (some centres unmarked) | -60.9
C/C(=N\N(c1ccccc1)c1ccccc1)c1ccco1 | -17.3
Cc1ccc(C)c(N2CCN(CCCNC(=O)CCn3c(=O)c4cccn4c4cccnc43)CC2)c1 | -70
Cn1ncc(N=Cc2ccc([N+](=O)[O-])cc2)c1C(=O)N1CCOCC1 | -12.3
CCOc1ccc(C(C)=O)cc1CSc1nnc(N)s1 | 11.2
Cc1cccc(OCCOc2ccc(/C=N/NC(=O)Cc3nnc(N)s3)cc2)c1 | 11.7
Cc1ccsc1CN(C)Cc1nc(C2CC2)no1 | -1.13
Br.COc1ccc2c3c1O[C@H]1C[C@@H](O)C=C[C@@]31CCN(C)C2 | 2.76
COc1cccc(N/C=C(\C#N)c2ccc(OCCCF)cc2)c1 | 8.19
Cn1nc(C(F)(F)F)cc1C(=O)NC1CCCCCC1 | 6.46
CC1(C)Cc2c(c(=S)nc(-c3ccccc3)n2Cc2cccnc2)CO1 | 0.687

SMILES | hERG current change (%, negative = inhibition) at 10uM [%]
CCCOc1ccc(CC(=O)NNC(=S)Nc2ccccc2)cc1Br | 15.2
CC(=O)c1sc2nc(-c3cccs3)ccc2c1N | 10.5
COc1ccc(CC(NC(C)=O)C(=O)NC2CCN(C(=O)Nc3ccccc3C)CC2)cc1OC (centres unmarked) | 4.13
CCSc1nc(-c2ccccc2)cc(=O)[nH]1 | -2.62
COc1ccccc1CNCCc1ccc(F)cc1.O=C(O)C(=O)O | -33.8
CC1(N(O)C=C2C=CC(=O)C=C2)CCCCC1=O (centres unmarked) | 35.1
CCOC(=O)c1sc(=S)n(-c2ccccc2)c1N | 0.147
COc1ccc(CN2CCNC(=O)C2CC(=O)NC2CCOCC2)c(F)c1 (centres unmarked) | -25.4
Cc1cc(=O)n(-c2ccc(O)cc2)[nH]1 | 3.97
CCC(C)(NC(=O)Cc1c[nH]c2ccccc12)C(=O)NC1CCCCC1 (centres unmarked) | 2.32
COc1ccccc1C1CC(c2ccco2)=NN1S(C)(=O)=O (centres unmarked) | 7.02
CN(Cc1ccc(F)cc1Cl)S(=O)(=O)c1cccs1 | -62
Cc1nn(-c2ccccc2[N+](=O)[O-])c(=O)c2ccccc12 | 9.2
O=C(Nc1ncccc1O)c1ccc2c(c1)OCO2 | 3.08
O=C1NC(=O)N(CCNc2ncc(C(F)(F)F)cc2Cl)C(=O)C1/C=N/OCc1c(F)cccc1Cl (centres unmarked) | -1.19
Br.Cc1ccc(C)c(C(=O)CN2C3=NCCCN3c3ccccc32)c1 | -69.2
Cc1ccc(S(=O)(=O)/N=C(\Nc2cccc(C)c2)Nc2nc(C)cc(C)n2)cc1 | 17.1
Cc1cc2nnc(SCC(=O)Nc3ccc(Cl)cc3)n2c(N)n1 | -6.76
CCOCC(O)CNC(=O)c1ccc2nc(Cc3ccc(OC)c(OC)c3)oc2c1 (centres unmarked) | 21.8
CN(C)C(=O)COC(=O)c1ccccc1OCC(=O)Nc1ccc(SC(F)F)cc1 | -51.8

SMILES | hERG current change (%, negative = inhibition) at 10uM [%]
NNC(=O)C1COc2cc3ccccc3cc2O1 (centres unmarked) | 7.85
CCOC(=O)c1ccc(NC(=S)NN)cc1 | 20
Cc1cc(Cn2nc(-c3ccccc3)cc2C(=O)NCc2cccs2)on1 | -19.7
CCc1nn(CC(=O)NCCCN(C)C2CCCCC2)c(=O)c2cc3occc3n12 | -1.82
COc1c(CC=C(C)C)c(O)cc2oc(=O)c3c4ccc(O)cc4oc3c12 | 4.94
CCNc1ccccc(-c2ccc3ccccc3n2)c1=O | -26.4
Cn1c(N)c(C(=O)COC(=O)CCC(=O)c2ccc(F)cc2)c(=O)n(C)c1=O | -25.4
CCCC(=O)N(Cc1cc(=O)[nH]c2ccccc12)c1ccccc1OC | -10.9
COc1ccc(-n2c(=O)c3c4c(sc3n(CC(=O)Nc3cc(C)[nH]n3)c2=O)CCC4)c(OC)c1 | -6.64
O=C(NCc1nnnn1-c1ccc(F)c(F)c1)c1ccc2ccccc2c1 | -38.8
O=C(Nc1cccc2ccccc12)N1CCC2(CC1)OCCO2 | 15
COc1ccc2oc(C(=O)OCC(=O)N3CC(C)OC(C)C3)c(C)c2c1 (centres unmarked) | -0.998
CSc1nc(C=Nc2ccccc2Cl)c(O)n1Cc1cccc(Cl)c1 | 12.4
COc1ccc(/C(C)=N/Nc2cc(C(F)(F)F)ccc2Cl)c(OC)c1 | 4.1
O=c1c2c3c(sc2nc2n1CCCC2)CCC3 | -9.34
CC(C)Cc1nccs1 | 16.3
COc1ccccc1C(=O)N1C(CC(=O)Nc2ccccc2C)C(=O)NC2CCCCC21 (centres unmarked) | 7.1
Cc1nc2nc(SCC(=O)NCCN3CCOCC3)nn2c(C)c1Cc1ccccc1 | 6.64
CCC(CC)C(=O)c1c[nH]c(C(=O)NCC2CCCO2)c1 (centres unmarked) | 4.28
